# Counter-ions that a name gives are not always drawn. ± gives the standard deviation of the averaged measurements. Whole data set: some 3,100 compounds, median “mean cytoplasmic OPP incorporation (global translation) relative to DMSO” near 100, cut for the lowest 2% near 56. The list shows a part of the results.
# Tested on: U2OS
# Assay: mean cytoplasmic OPP incorporation (global translation) relative to DMSO (% of DMSO); higher = more protein synthesis
# Conditions: 10 µM; 24 h
# Procedure: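 Primary image-based screen in U2OS cells: compounds at 10 uM for 24 h, then a 1 h o-propargyl-puromycin (OPP) pulse, click labelling, and high-throughput microscopy. Mean cytoplasmic OPP intensity and nuclei count were normalised to DMSO wells within each plate (DMSO = 100) and averaged over triplicate plates.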
row,Structure (SMILES),mean cytoplasmic OPP incorporation
1,CCCNC(C)(C)COC(=O)c1ccccc1 [Meprylcaine hydrochloride],110
2,COc1cc2nc(N3CCCN(C)CC3)nc(NC3CCN(Cc4ccccc4)CC3)c2cc1OC,91.1
3,O=S(=O)(c1cccc2cnccc12)N1CCCNCC1 [Fasudil hydrochloride],95.8
4,O=S(=O)(c1cccc2cnccc12)N1CCCNCC1 [Fasudil HCl (HA-1077)],98.2
5,CC(C)c1cnn2c(NCc3ccccc3)cc(NCCCCCCN)nc12,115
6,CCc1nn(CCCN2CCN(c3cccc(Cl)c3)CC2)c(=O)n1CCOc1ccccc1 [Nefazodone HCl],106
7,CCc1nn(CCCN2CCN(c3cccc(Cl)c3)CC2)c(=O)n1CCOc1ccccc1 [Nefazodone hydrochloride],117
8,CCOC(=O)CC(=O)N1CCSC1COc1ccccc1OC (configuration not stated) [Moguisteine],93.7
9,CC(=O)Oc1ccc(C(c2ccc(OC(C)=O)cc2)c2ccccn2)cc1 [Bisacodyl],93.5
10,Cc1ccc(C(=O)c2cc(/C=C/C(=O)NO)n(C)c2)cc1,99.3
11,CCCCS(=N)(=O)CCC(N)C(=O)O (configuration not stated) [Buthionine sulfoximine],121
12,CCC(C)(C)C(=O)O[C@H]1C[C@@H](C)C=C2C=C[C@H](C)[C@H](CC[C@@H]3C[C@@H](O)CC(=O)O3)[C@H]21 [Simvastatin],108 ± 11
13,CCNC1(C(N)=O)CCN(c2ncnc3c2nc(-c2ccccc2Cl)n3-c2ccc(Cl)cc2)CC1,114
14,CCCc1nn(C)c2c(=O)[nH]c(-c3cc(S(=O)(=O)N4CCN(C)CC4)ccc3OCC)nc12 [Sildenafil],100
15,CN(C[C@@H]1COCCO1)S(=O)(=O)Nc1ccc2ccc3ncc(-c4cnn(C)c4)cc3c(=O)c2c1,96.2 ± 3.8
16,N#CC[C@H](C1CCCC1)n1cc(-c2ncnc3[nH]ccc23)cn1,83.53 ± 0.64
17,Clc1ccc(C(c2ccccc2Cl)C(Cl)Cl)cc1 (configuration not stated) [Mitotane],114
18,O=C1O[C@H]([C@@H](O)CO)C(O)=C1O [Ascorbic acid],112 ± 8.9
19,Cc1cccc(C)c1OCC(=O)N[C@@H](Cc1ccccc1)[C@@H](O)C[C@H](Cc1ccccc1)NC(=O)[C@H](C(C)C)N1CCCNC1=O [Lopinavir (ABT-378)],113
20,c1ccc(-c2nn3c(c2-c2ccnc4cc(OCCN5CCOCC5)ccc24)CCC3)nc1,106
21,O=C(O)Cn1nnc(-c2cc(N3CCC(Oc4cc(F)ccc4Br)CC3)no2)n1,97.1
22,O=C(c1ccc(F)cc1)C1CCN(CCn2c(=S)[nH]c3ccccc3c2=O)CC1 [Altanserin hydrochloride],96.6

# From the supplement of paper PMC8183993
